Data on one molecule can be found in US11866502B2, “Anti-FGFR2 antibodies and methods of use thereof” (Regeneron Pharmaceuticals, Inc., priority 2020, dated 2024).

A value given as a limit tells only on which side of the number the result lay.

Assay [1] relates to SNU5 (FGFR2b negative cells) xenografts. The experiment in a line: In vivo bystander study, SNU-5 xenografts (Example 15). As to conditions: 10 mg/kg single dose. On the set-up: species or system BALB/c SCID mice. The protocol:
(§1) The ability of the anti-FGFR2 ADCs to induce tumor regression in FGFR2 negative cells through release of the payload in FGFR2 positive cells, i.e., bystander activity, was also assessed. The ability of FGFR2b Camptothecin ADC and FGFR2b Maytansinoid ADC to inhibit tumor growth was tested on FGFR2-amplified SNU-16 human gastric cancer xenografts (FIG. 11), on FGFR2-negative SNU-5 human gastric cancer xenografts (FIG. 12), or on co-inoculated SNU-16 and SNU-5 xenografts implanted at a ratio of 2:1 (FIG. 13).
(§2) Briefly, 5×10^6 SNU-16 and/or SNU-5 cancer cells (ATCC) mixed with Matrigel (BD Biosciences) were implanted subcutaneously into the flank of male BALB/c SCID mice (6-8 weeks old, Jackson Laboratory). After tumors reached an average volume of 200-250 mm^3, mice were randomized into groups for treatment (n=6 mice per group).
(§3) Tumor volumes were measured twice per week over the course of the experiment. Averages (mean+/−standard deviation) of the tumor growth (change in tumor volume from the start of treatment through the end of the experiment) were calculated for each treatment group. The percent decrease of tumor growth was calculated from comparison to the isotype control group, and the percent regression of tumors at the end of the experiment was calculated from comparison to the tumor volume at the start of treatment.

The subject of assay [2] is human gastric cancer PDX GA0033 tumors. Description: Human gastric cancer PDX GA0033 tumor growth (Example 8). As to conditions: two treatments; for Tumor growth in mm^3 from start of treatment (mean ± SD): subcutaneous. In kind it is in vivo, BALB/c nude mice. The protocol: Briefly, HuPrime® primary human gastric cancer PDX GA0033 tumor fragments 2-3 mm in diameter (Crown Bioscience) were implanted subcutaneously into the right flank of female BALB/c nude mice (5-9 weeks old, GemPharmatech). After tumors reached an average volume of 100-200 mm^3, mice were randomized into groups for treatment (n=6 mice per group). […] All ADCs were administered once per week via subcutaneous injection for two treatments, and all naked antibodies were administered twice per week via subcutaneous injection throughout the experiment. Tumor volumes were measured twice per week over the course of the experiment. Averages (mean+/−standard deviation) of the tumor growth (change in tumor volume from the start of treatment through the end of the experiment) were calculated for each treatment group. The percent decrease of tumor growth was calculated from comparison to the corresponding isotype control group, and the percent regression of tumors at the end of the experiment was calculated from comparison to the tumor volume at the start of treatment.

For assay [3], the system named is NCI-H716 cells. Description: In vitro cytotoxicity assay (CellTiter-Glo 2.0), NCI-H716 cells. It is filed as cell-based, human. To be noted: 6 days. The protocol:
(§4) To test the ability of anti-FGFR2 antibody drug conjugates (ADCs) disclosed herein to kill human cell lines, an in vitro cytotoxicity assay was performed. In vitro cytotoxicity of the anti-FGFR2 ADCs, isotype control ADCs, and reference free payloads were evaluated using the CellTiter-Glo 2.0 Assay Kit (Promega, Cat #G9243), in which the quantity of ATP present is used to determine the number of viable cells in culture. The payloads Maytansinoid 1A, Maytansinoid 1A* (a cell permeable equivalent of Maytansinoid 1A), and Tubulysin 1A were tested as free payloads, and the unconjugated antibodies, including comparator antibodies, were used as controls.
(§5) Five-fold serial dilutions of anti-FGFR2 ADCs or isotype control ADCs were prepared in dilution media (Optimem+0.1% BSA) and added to cells at final concentrations ranging from 20 nM to 0.051 pM (concentrations were corrected for the DAR and are dosed based on the effective payload concentration). Five-fold serial dilutions of free payloads were prepared in 100% DMSO, transferred to fresh dilution media, and then added to the cells at a final constant DMSO concentration of 0.2% and final payload concentrations ranging from 20 nM to 0.051 pM. The last well in each dilution series served as an untreated control and included media alone or media plus 0.2% DMSO and was plotted as a continuation of the 5-fold serial dilution. Six days later, 100 uL of CellTiter Glo 2.0 was added to each well, plates were mixed for 2 minutes on an orbital shaker, and plates were incubated at room temperature for 10 minutes. Relative light units (RLUs) were measured on an Envision luminometer (Perkin Elmer) and cell viability was expressed as a percentage of the untreated (100% viable) cells. IC50 values were determined using a four-parameter logistic equation over a 10-point dose response curve (GraphPad Prism). The maximum % kill was also determined for each test article as follows: 100−minimum percent viability.

In assay [4] the test system is IM-9 cells. The experiment in a line: In vitro cytotoxicity assay (CellTiter-Glo 2.0), IM-9 cells. In kind it is cell-based, human. To be noted: 6 days. The protocol: as §4, §5
For assay [5], the target named is T1, hFGFR2b.mmh (Homo sapiens, UniProt P21802).
T1 construct: myc-myc-hexahistidine (MMH) (C); made in house
The experiment in a line: Biacore surface plasmon resonance binding kinetics to hFGFR2b.mmh. To be noted: 25° C. The protocol: The Biacore sensor surface was derivatized by amine coupling with a monoclonal mouse anti-human Fc antibody (REGN2567 or Jackson Cat. […] Human FGFR2b and Human FGFR2c were prepared in-house expressing a C-terminal myc-myc-hexahistidine tag ([…] NO: 57; […] NO: 58). […] Association of hFGFR2b-MMH or hFGFR2c-MMH to each of the captured ADCs and monoclonal antibodies was monitored for 4 minutes. Subsequently, dissociation was monitored for 10 minutes in HBS-EP running buffer. Anti-human Fc surface was regenerated by a brief injection of 20 mM H3PO4. All binding kinetic experiments were performed at 25° C. […] All sensorgrams were double referenced by subtracting buffer injection sensorgram signal from the corresponding analyte sensorgram, thereby removing artifacts caused by dissociation of the antibody from the capture surface. […] [formula]

Assay [6] relates to SNU16 (FGFR2b positive cells) xenografts. The experiment in a line: In vivo bystander study, SNU-16 xenografts (Example 15). As to conditions: 10 mg/kg single dose. On the set-up: species or system BALB/c SCID mice. The protocol: as §1, §2, §3
Assay [7] concerns SNU16 and SNU5 Co-Inoculated (2:1 ratio) xenografts. Description: In vivo bystander study, SNU-16 and SNU-5 co-inoculated xenografts (Example 15). On the set-up: species or system BALB/c SCID mice. To be noted: 10 mg/kg single dose. The protocol:
as §1, §2, §3

T1 sequence (P21802 with tags, fused parts or gaps isoform P21802-3): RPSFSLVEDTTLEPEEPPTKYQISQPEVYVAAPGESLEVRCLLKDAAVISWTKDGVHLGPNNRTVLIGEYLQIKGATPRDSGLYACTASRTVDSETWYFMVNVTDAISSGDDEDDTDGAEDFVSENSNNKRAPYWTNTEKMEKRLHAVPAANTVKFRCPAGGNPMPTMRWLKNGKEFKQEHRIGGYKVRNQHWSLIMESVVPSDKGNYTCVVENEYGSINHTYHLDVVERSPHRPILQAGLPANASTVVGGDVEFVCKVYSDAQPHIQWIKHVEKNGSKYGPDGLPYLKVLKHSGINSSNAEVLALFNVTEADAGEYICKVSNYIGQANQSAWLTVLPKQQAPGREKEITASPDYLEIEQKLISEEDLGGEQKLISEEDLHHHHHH

B1: mAb1-maytansinoid 1ALP: anti-FGFR2 mAb1 conjugated to maytansinoid 1ALP (mc-VC-PAB-NMe-C3-May) (conjugate)
heavy: QVQLVESGGGVVQPGRSLRLSCAASGFTFSSYGMHWVRQAPGKGLEWVAVIWYDGSNKYYADSVKGRFTISRDNSKNTLYLQMNSLRAEDTAVYYCAREESSASGVDYWGQGTLVTVSSASTKGPSVFPLAPCSRSTSESTAALGCLVKDYFPEPVTVSWNSGALTSGVHTFPAVLQSSGLYSLSSVVTVPSSSLGTKTYTCNVDHKPSNTKVDKRV[human IgG4 Fc with S228P (EU numbers) omitted]
light: EIVLTQSPGTLSLSPGERATLSCRASQSVSTRYLAWYQQKRGQAPRLLIYGASSRATGIPDRFSGSGSGTDFTLTISRLEPEDFAVYYCQEYGSSSITFGQGTRLEIKRTVAAPSVFIFPPSDEQLKSGTASVVCLLNNFYPREAKVQWKVDNALQSGNSQESVTEQDSKDSTYSLSSTLTLSKADYEKHKVYACEVTHQGLSSPVTKSFNRGEC
modifications: N-methyl
Regarding B1, the “Average % Tumor Regression” value is reported as −311.8% in assay [1]; 75.0% in assay [2] (10 mg/kg once per week, vs tumor volume at start); 100% in assay [6]; −118.3% in assay [7] (co-inoculated 2:1). Further, the “Tumor growth in mm^3 from start of treatment (mean ± SD)” value is on record as 401.6 ± 74.4 mm^3 in assay [1] (subcutaneous); 273.6 ± 241.9 mm^3 in assay [2] (3 mg/kg once per week); −104.2 ± 20.6 mm^3 in assay [2] (10 mg/kg once per week); −160.7 ± 28.4 mm^3 in assay [6] (subcutaneous); 181.1 ± 57.0 mm^3 in assay [7] (SNU16 and SNU5 co-inoculated 2:1, subcutaneous). For the same molecule, the “Average % Decrease in Tumor Growth” value is 3.4% in assay [1] (vs isotype control group); 75.1% in assay [2] (3 mg/kg once per week, vs corresponding isotype control); 120.4% in assay [6] (vs isotype control group); 68.2% in assay [7] (co-inoculated 2:1, vs isotype control group). The half-inhibitory concentration (IC50) in assay [3] (NCI-H716 (low FGFR2b, high FGFR2c)) is over 20 nM; in assay [4] (IM-9 (non-FGFR2 expressing)) it was over 20 nM. The “Max % Kill” value in assay [3] (NCI-H716, up to 20 nM) came to 0.5%; in assay [4] (IM-9, up to 20 nM) it was 0.0%. Besides, in assay [5], the “ka” value was found to be 24800 M⁻¹ s⁻¹. The “kd” value in assay [5] was determined as 0.00104 s⁻¹.
